Screen size: about 46,000 compounds; about 60 (0.1%) were called active. About 3% were inconclusive and are not listed. The call rests on the fitted dose curve; in most records, active means well fitted inhibition curve with a large enough effect; inconclusive means small, poorly fitted or top-dose-only effect; inactive means no such curve, though single readings can be large or run the other way. The list shows a part of the results.
Assay: Primary qHTS assay for Inhibitors of ovarian cancer metastasis using an organotypic tumor microenvironment (TME) model. Further: nearly all actives have a fitted effect of over 65% in size.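 On activity change, negative = inhibition: plate controls were DMSO wells for no effect and tomatine positive control wells for full effect.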
Conditions: SKOV3ip1-GFP adhesion/invasion on 3D omental model, fluorescence; series mostly up to 45.8 µM; activity change, negative = inhibition: at the top concentration
Method in brief: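 Primary human omental fibroblast/mesothelial 3D culture pre-formed 48 h. SKOV3ip1-GFP cells added with compounds (0.36-46 umol/L), incubated 2 h RT/16 h 37 C, fixed; GFP cells quantified at 488/509 nm.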

outcome, inactive:
CCOc1ccc(-n2nc(CO)c(C(=O)NCC(C)O)n2)cc1 (stereo unspecified)
Clc1ccccc1CSc1nc(NCCc2ccccc2)c2ccccc2n1
CCOC(=O)C1CCN(c2ncnc3c2c(-c2ccccc2)cn3-c2ccc(Cl)cc2)CC1
CCOc1ccc(NC(=O)CCc2nnc3n(C)c(=O)c4sccc4n23)cc1
CCN(Cc1ccccc1)C(=O)Cn1ncc2c(=O)oc3ccc(C)cc3c21
CCOc1ccccc1Nc1sc(C(=O)c2ccc(Cl)cc2)c(N)c1S(=O)(=O)c1ccccc1
CCOc1cccc(NC(=O)C2CC(=O)N(C)C(=Nc3ccc(OC)cc3)S2)c1 (stereo unspecified)

Activity change, negative = inhibition, inactive:
CCOc1ccccc1Oc1nc(C)nc2c1oc1ccccc12 -14.8%
N#Cc1c(C(F)(F)F)cc(-c2cccs2)nc1SCc1ccccc1F 3.7%
Cc1ccc(NC(=O)Cn2c(=O)n(CCCCC(=O)NCc3ccc4c(c3)OCO4)c(=O)c3ccccc32)cc1 14.8%
CCC(=O)N1c2ccccc2CC1C(=O)N1CCN(c2ccccc2F)CC1 (stereo unspecified) 7.46%
CCOc1ccccc1CNS(=O)(=O)c1cc(-c2onc(C)c2C)ccc1OC -1.81%
COc1cnc(NS(=O)(=O)c2ccc(N)cc2)nc1 2.75%
CCOC(=O)c1c(C)[nH]c(C)c1S(=O)(=O)NCC(=O)NCc1ccccc1C 1.97%
Cc1cccc(N2CCN(C(=O)c3ccc4c(c3)N(Cc3cccc(Cl)c3)C(=O)c3ccccc3S4(=O)=O)CC2)c1C 3.21%
O=C(CSc1ncc2c(n1)-c1ccccc1N(Cc1ccc(Cl)cc1)S2(=O)=O)c1ccccc1 2.96%
O=C(O)CCn1c2c(c3ccccc31)C[C@H](NS(=O)(=O)c1ccc(F)cc1)CC2 11.8%
CCOc1ccc(CNCc2c(C(=O)O)n(Cc3ccccc3C)c3cc(OC)ccc23)cc1OC -8.2%
CC(CNC(=O)C1CCN(C(=O)c2cc3sccc3n2C)CC1)c1ccccc1 (stereo unspecified) -14.5%
COc1ccccc1NC(=O)Cn1ccn(-c2cc(C)cc(C)c2)c(=O)c1=O -4.63%
CCC(C(=O)NC1CCCCC1)n1c(SCc2cccc(F)c2)nc2ccncc21 (stereo unspecified) -5.64%
Cc1ccc(S(=O)(=O)C(CNS(=O)(=O)c2ccc(F)c(C(F)(F)F)c2)c2ccco2)cc1 (stereo unspecified) 4.65%
COc1ccccc1CNC(=O)CCc1c(C)nn(-c2ccc(N3CCCCC3)nn2)c1C -3.7%
Cn1nc(C(=O)NCc2ccccc2)c2c1-c1ccccc1S(=O)(=O)C2 0.204%
Cc1ccc(Cl)cc1N1CCN(C(=O)CCS(=O)(=O)c2ccc3c(c2)oc(=O)n3C)CC1 5.03%
Cc1cccc(CN2CCN(C(c3ccccc3)c3ccc(Cl)cc3)CC2)c1 (stereo unspecified) -11.1%

Reference: PubChem BioAssay AID1963576 (National Center for Advancing Translational Sciences (NCATS), 2024)
